# Measured values as given in PubChem BioAssay AID485294 (National Center for Advancing Translational Sciences (NCATS), 2010).
# Among all 370,000 compounds or so, about 150 (0.041%) were called active. Inconclusive results, whose numbers are uncertain, are shown with a selection of clear calls. Calls follow the shape of the dose curve; as a rule, active = well fitted inhibition curve with a large enough effect; inconclusive = small, poorly fitted or top-dose-only effect; inactive = flat fitted curve, though single readings scatter. No potency is given beside an inconclusive call; the fits are too rough.
# Biological target: Beta-lactamase (Escherichia coli (strain K12)) (UniProt P00811)
# Assay: qHTS Inhibitors of AmpC Beta-Lactamase (assay with detergent); also: nearly all actives have a fitted effect of over 25% in size
# Details: AmpC hydrolysis of nitrocefin, absorbance 480 nm, 0.01% Triton; series mostly up to 114 µM
# Method in brief: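 AmpC (5.3 nM in the dispensed reagent) in 20 mM phosphate pH 7.0 with 0.01% (detergent screen) or 0.0001% Triton X-100 was preincubated with compounds for 15 min at room temperature. Nitrocefin was then added from an 800 uM solution, and hydrolysis was followed at 480 nm.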
# Potency is read from the fitted curve at half-maximal effect; tags tell the direction and shape of the fitted curve.
# UniProt P00811, sequence (P00811 whole entry, looked up): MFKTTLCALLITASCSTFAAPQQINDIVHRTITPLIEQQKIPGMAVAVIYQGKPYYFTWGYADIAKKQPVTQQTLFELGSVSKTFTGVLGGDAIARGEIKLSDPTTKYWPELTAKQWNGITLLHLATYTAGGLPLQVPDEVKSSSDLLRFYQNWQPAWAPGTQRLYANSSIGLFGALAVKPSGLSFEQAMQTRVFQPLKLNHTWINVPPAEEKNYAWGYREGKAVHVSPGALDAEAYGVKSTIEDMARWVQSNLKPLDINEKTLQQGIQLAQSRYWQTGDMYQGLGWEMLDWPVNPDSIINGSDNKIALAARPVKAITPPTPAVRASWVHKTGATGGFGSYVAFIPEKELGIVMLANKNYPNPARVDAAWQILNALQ
row,Structure (SMILES),Potency
1,Cc1ccc(N2C(=O)c3ccccc3C2Nc2ccc(S(=O)(=O)N3CCCCC3)cc2)nc1 (stereo unspecified),"inconclusive [inhibitor, full curve, poor fit]"
2,CC(C)[C@@H]1NC(=O)N(c2ccc(Oc3ccccc3)cc2)C1=O,"inconclusive [inhibitor, full curve, poor fit]"
3,CNC(=S)Nc1ccc(-c2nc3ccc(C)cc3s2)cc1,"inconclusive [inhibitor, full curve, poor fit]"
4,C[N+]1(CC(=O)OC2CCCCCCCCCCC2)CCCC1,"inconclusive [inhibitor, partial curve, poor fit]"
5,Cc1cc2c(=O)n(CC(=O)N3CCN(c4ccccc4)CC3)cnc2s1,"inconclusive [inhibitor, full curve]"
6,C=CCC1(CC=C)CCCN1C(=O)c1cc(COc2ccc(C)nc2)on1,inactive
7,CCc1cc2c(SCC(=O)NCC3CCCO3)ncnc2s1 (stereo unspecified),inactive
8,O=C(NCc1ccc(OC(F)(F)F)cc1)C1CC2Cn3c(nc4ccccc43)C2N1c1ccccc1 (stereo unspecified),"inconclusive [inhibitor, partial curve, poor fit]"
9,CC1CCN(C2=NC(=O)/C(=C/c3cn[nH]c3-c3ccccc3)S2)CC1,"inconclusive [inhibitor, single point]"
10,O=C(NCC1CCCO1)Nc1ccccc1 (stereo unspecified),"inconclusive [inhibitor, full curve, poor fit]"
11,CN1CCc2c(sc3nc(SCC(=O)NCc4ccco4)n(-c4ccccc4)c(=O)c23)C1,inactive
12,Cc1ccc(S(=O)(=O)N2CCOCC2)cc1C(=O)N1C(=O)c2cccc(N)c2C1=O,"inconclusive [inhibitor, full curve, poor fit]"
13,CCOc1cc(C(=O)N2CCOCC2)ccc1OCc1ccccc1,"inconclusive [inhibitor, full curve, poor fit]"
14,Oc1ccccc1OCC(O)c1ccccc1 (stereo unspecified),"inconclusive [inhibitor, single point]"
15,Cc1cc(NC(=O)CSCc2ccccc2)no1,"inconclusive [inhibitor, partial curve]"
16,Cc1occc1C(=O)N/N=C/c1cccnc1,inactive
17,O=C(O)/C(=C\c1ccc(Cl)cc1)c1ccc(S(=O)(=O)N2CCCC2)s1,"inconclusive [inhibitor, partial curve, poor fit]"
18,CC(OC(=O)CN1C(=O)NC2(CCCC2)C1=O)C(=O)c1ccccc1 (stereo unspecified),"inconclusive [inhibitor, partial curve]"
19,Cc1nc2ccccc2c(C)c1CC(=O)N(C)CC(=O)Nc1cccc(F)c1,"inconclusive [inhibitor, single point]"
20,N#Cc1sc2nc(-c3ccccc3)cc(-c3ccco3)c2c1N,inactive
21,Cc1ccccc1COc1ccc(/C(O)=C2/C(=O)C(=O)N(CCCn3ccnc3)C2c2ccco2)cc1 (stereo unspecified),"inconclusive [inhibitor, partial curve, poor fit]"
22,COc1cccc(NC(=O)COC(=O)/C=C/c2c(C)nn(-c3ccccc3)c2C)c1,"inconclusive [inhibitor, full curve, poor fit]"

row,Structure (SMILES),Potency
1,CN(c1ccccc1C(=O)Nc1ccccc1-c1ccccc1)S(C)(=O)=O,"inconclusive [inhibitor, full curve, poor fit]"
2,COc1ccc(S(=O)(=O)N(C)CC(=O)N2CCCC2)cc1,"inconclusive [inhibitor, partial curve]"
3,Cc1ccc(C)c(S(=O)(=O)N2CC(=O)N(CCc3ccccc3)C(=O)C2)c1,"inconclusive [inhibitor, full curve, poor fit]"
4,Cc1ccc(NC(=O)Cc2noc3ccccc23)c(C)c1,"inconclusive [inhibitor, partial curve]"
5,O=C(COc1ccccc1)NCC(=O)N/N=C/c1cccs1,"inconclusive [inhibitor, single point]"
6,CCOc1ccc(C(=O)Nc2ccc(-c3nc4ccccc4[nH]3)cc2)cc1[N+](=O)[O-],inactive
7,CCCN1CCN(C(=S)Nc2ccc(SC(F)F)cc2)CC1,"inconclusive [inhibitor, partial curve, poor fit]"
8,COc1cccc(NC(=O)CC2(CC(=O)O)CCCC2)c1,"inconclusive [inhibitor, full curve, poor fit]"
9,Cc1ccc(-c2nnn(CC(=O)N(c3ccccc3)C(C(=O)NCC3CCCO3)c3ccc(Cl)cc3)n2)cc1 (stereo unspecified),"inconclusive [inhibitor, single point]"
10,COc1cc(C(=O)NCCC(=O)N2CCC3(CC2)NCCc2[nH]cnc23)cc(OC)c1OC,"inconclusive [inhibitor, full curve, poor fit]"
11,CC(C)c1ccc(NC(=O)COc2ccccn2)cc1,"inconclusive [inhibitor, full curve]"
12,O=C(Nc1nnc(-c2ccc(F)cc2)s1)c1c(F)cccc1Cl,"inconclusive [inhibitor, partial curve, poor fit]"
13,CC1=C(C(=O)OCc2ccccc2)C(c2ccc(C)o2)C2=C(CCCC2=O)N1 (stereo unspecified),inactive
14,COc1ccc(CN2CCN(S(=O)(=O)c3ccccc3)CC2)c(OC)c1,"inconclusive [inhibitor, full curve, poor fit]"
15,COCCOC(=O)c1c(C)n(C)c2ccc(OC(=O)c3cccs3)cc12,"inconclusive [inhibitor, partial curve]"
16,COc1cc(NC(=O)CSc2ccc(-c3sc(-c4ccccc4)nc3C)nn2)cc(OC)c1,"inconclusive [inhibitor, single point]"
17,Cc1ccc2c(N)c(C(=O)N(c3ccccc3)c3ccccc3)sc2n1,inactive
18,Oc1c(Br)cc(C=Nc2ccc3nc(-c4ccccc4)[nH]c3c2)c(O)c1Br,inactive
19,COc1ccc(-c2cc(-c3ccc(O)cc3)nc(N)c2C#N)cc1,"inconclusive [inhibitor, full curve, poor fit]"
20,O=C(Nc1ccc(Cl)c(S(=O)(=O)N2CCOCC2)c1)c1ccccn1,inactive
21,O=C(Nc1ccc(Br)cc1)c1cc(-c2cccs2)on1,inactive
22,O=C(Cn1nnc(-c2ccccc2)n1)Nc1cccc(S(=O)(=O)N2CCOCC2)c1,inactive

row,Structure (SMILES),Potency
1,CC(=O)c1ccc(OCCCC(=O)NNC(=O)c2ccccn2)cc1,"inconclusive [inhibitor, partial curve, poor fit]"
2,CC(C)(C)c1ccc(/C=N/OCC(=O)NCc2ccccc2)cc1,"inconclusive [inhibitor, full curve]"
3,CCS(=O)(=O)Nc1ccc(-c2cc(-c3ccccc3)c3cc(C)ccc3n2)cc1,"inconclusive [inhibitor, partial curve, poor fit]"
4,Cc1ccc(CNC(=O)C2CCCN(Cc3cnn(-c4ccccc4)c3-n3cccc3)C2)cc1 (stereo unspecified),"inconclusive [inhibitor, single point]"
5,Cc1cc(NC(=O)c2ccc([N+](=O)[O-])cc2Cl)ccc1NC(=O)c1ccco1,"inconclusive [inhibitor, full curve]"
6,O=C1CC(C(=O)Nc2ccccc2C(=O)O)C(c2ccccc2)O1 (stereo unspecified),"inconclusive [inhibitor, full curve]"
7,O=C(NC1CCCC1)C1CCCN1C(=O)Nc1ccccc1 (stereo unspecified),"inconclusive [inhibitor, partial curve, poor fit]"
8,C=CCc1cccc2cc(C(=O)NC3CCCCC3)c(=O)oc12,"inconclusive [inhibitor, single point]"
9,CCOc1ccc(CCNC(=O)CCNC(=O)c2ccccc2Cl)cc1OCC,inactive
10,COc1ccc(-n2nc(C(=O)NCc3ccc(F)cc3)c3c4ccccc4n(C)c3c2=O)cc1,inactive
11,COc1ccc(C(=O)NCCS(=O)(=O)NCc2ccc3c(c2)OCO3)cc1,"inconclusive [inhibitor, full curve, poor fit]"
12,COc1ccc(C2=NN(C(=O)CSc3ncccn3)C(c3ccc(OC)cc3)C2)cc1 (stereo unspecified),inactive
13,CCCCC(C(=O)OCC(=O)c1ccc(OC)cc1)N1C(=O)c2ccccc2C1=O (stereo unspecified),"inconclusive [inhibitor, full curve, poor fit]"
14,CC(=O)Nc1ccc(S(=O)(=O)Nc2ccc3c(c2)OCO3)cc1,"inconclusive [inhibitor, full curve]"
15,COc1cc(C(=O)Nc2ccc(OCc3cc(=O)n4cccc(C)c4n3)cc2)cc(OC)c1OC,inactive
16,C/C(=N/OC(=O)c1c(-c2c(Cl)cccc2Cl)noc1C)c1cnccn1,inactive
17,O=C(Nc1cccc(S(=O)(=O)N2CCCCCC2)c1)c1ccc2ccccc2n1,"inconclusive [inhibitor, full curve, poor fit]"
18,Cc1ccc(C(=O)Oc2oc(-c3ccco3)nc2C=Nc2ccc(Cl)cc2)cc1,inactive
19,CN(CC(=O)Nc1ccc(F)cc1)C(=O)c1ccc(OCc2ccccc2)cc1,"inconclusive [inhibitor, partial curve, poor fit]"
20,CCOC(=O)c1cnc(Nc2ccc(OCC)cc2)nc1C,"inconclusive [inhibitor, single point]"
21,CCC(=O)N/C(=N/c1nc(C)cc(C)n1)Nc1ccc(OC)cc1,inactive
22,CCn1cc(/C=N/NC(=O)COc2cccc3cccnc23)c2ccccc21,"inconclusive [inhibitor, full curve]"
